Measurements taken from patent US5840683A, “Peptides inhibiting the oncogenic action of p21 ras” (Innapharma, Inc., dated 1998).
Part of at least one peptide drawing is inferred or uncertain, most often the ends. Some entries repeat one wording, which the source may state once for all of them. Ends that are not written are not given here. Peptide text beside a SMILES is read from it.

How the values were obtained:
oncogenic ras-p-21 [1] = settings: earlier work of one of the inventors; cited from earlier work
oncogenic ras p21 = test: Oocyte Maturation Assay (inhibition of ras-induced oocyte maturation); type: cell-based; settings: peptide dose equivalent to internal oocyte concentration of 50 nM; co-injected with transforming ras p21; compared with oocytes injected with 0.05 mg/ml oncogenic ras p21
oncogenic ras-p-21 [2] = test: anti-oncogenic p21 activity (statements in text, no method given)

TIEDSYRKQVVID-NH2 [SEQ ID NO:6, Thr-Ile-Glu-Asp-Ser-Tyr-Arg-Lys-Gln-Val-Val-Ile-Asp]
inhibition of the mitogenic effects of oncogenic ras-p-21 (oncogenic ras-p-21 [1]): selectively inhibits
Present Inhibition of ras-Induced Maturation (oncogenic ras p21): 28%
anti-oncogenic p21 activity (oncogenic ras-p-21 [2]): strong and specific anti-oncogenic p21 activity

CC(C)C[C@H](NC(=O)[C@@H](N)CC(=O)O)C(=O)N[C@@H](C)C(=O)N[C@@H](C)C(N)=O [SEQ ID NO:4, Asp-Leu-Ala-Ala] (H-DLAA-NH2)
Present Inhibition of ras-Induced Maturation (oncogenic ras p21): 22%

GNKCDLAARTVE-NH2 [SEQ ID NO:8, Gly-Asn-Lys-Cys-Asp-Leu-Ala-Ala-Arg-Thr-Val-Glu]
Present Inhibition of ras-Induced Maturation (oncogenic ras p21): 92%
anti-oncogenic p21 activity (oncogenic ras-p-21 [2]): strong and specific anti-oncogenic p21 activity

CC[C@H](C)[C@H](NC(=O)[C@@H](NC(=O)[C@@H](N)C(C)C)C(C)C)C(N)=O [Val--Val--Ile, Val-Val-Ile] (H-Val-Val-Ile-NH2)
Present Inhibition of ras-Induced Maturation (oncogenic ras p21): 34%

KCDLA-NH2 [SEQ ID NO:2, Lys-Cys-Asp-Leu-Ala]
Present Inhibition of ras-Induced Maturation (oncogenic ras p21): 38%

YREQIKRVKDSDDVP-NH2 [SEQ ID NO:7, Tyr-Arg-Glu-Gln-Ile-Lys-Arg-Val-Lys-Asp-Ser-Asp-Asp-Val-Pro]
Present Inhibition of ras-Induced Maturation (oncogenic ras p21): 56%
anti-oncogenic p21 activity (oncogenic ras-p-21 [2]): strong and specific anti-oncogenic p21 activity

CDLAART-NH2 [SEQ ID NO:9, Cys-Asp-Leu-Ala-Ala-Arg-Thr]
Present Inhibition of ras-Induced Maturation (oncogenic ras p21): 65%

CC(C)[C@H](NC(=O)[C@H](CCCNC(=N)N)NC(=O)[C@@H](N)CCCCN)C(N)=O [Lys--Arg--Val, Lys-Arg-Val] (H-Lys-Arg-Val-NH2)
Present Inhibition of ras-Induced Maturation (oncogenic ras p21): 22%
